IC50 is the fitted dose that halves viability relative to control wells, and lower means more sensitive; a fit beyond the top or the lowest dose is shown as a bound at that dose. For AUC the same curve is integrated over the 256-fold range of doses and scaled to a fraction; it is 1 without any effect and falls as sensitivity rises. For some assays here: The top dose, if marked as inferred, is not printed in the source and was worked back from the curve model.
Legend:
Experiment in all cases: Viability of human cancer cell lines after 72 h of drug (GDSC screen)
Bexarotene = compound: C=C(c1ccc(C(=O)O)cc1)c1cc2c(cc1C)C(C)(C)CCC2(C)C [Bexarotene]; conditions: top dose 8 µM
Procedure: (§1)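 Human cancer cell lines in 384-well plates, medium with 10% serum, drug for 72 h over a 256-fold dose range (nine 2-fold or five 4-fold steps up to the top dose). Adherent lines were fixed and stained with the nucleic acid dye Syto60, suspension lines read with resazurin; signal relative to control wells, capped at 0 and 100%. One two-parameter sigmoid per drug and line, fitted in a mixed model over all curves with the slope shared within a line.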

NPK76-II-72-1 = compound: COc1cc(C(=O)NC2CCN(C)CC2)ccc1Nc1ncc2c(n1)N(C1CCCC1)C(C)CC(=O)N2C [NPK76-II-72-1]; conditions: top dose 10.24 µM; top dose inferred
Procedure: as §1

YK 4-279 = compound: COc1ccc(C(=O)CC2(O)C(=O)Nc3c(Cl)ccc(Cl)c32)cc1 [YK 4-279]; conditions: top dose 10 µM
Procedure: as §1

BMS-345541 = compound: Cc1ccc2nc(NCCN)c3ncc(C)n3c2c1 [BMS-345541]; conditions: top dose 16 µM
Procedure: as §1

AZD7762 = compound: NC(=O)Nc1cc(-c2cccc(F)c2)sc1C(=O)N[C@H]1CCCNC1 [AZD7762]; conditions: top dose 2 µM
Procedure: as §1

GSK-650394 = compound: O=C(O)c1ccc(-c2c[nH]c3ncc(-c4ccccc4)cc23)cc1C1CCCC1 [GSK-650394]; conditions: top dose 16 µM; top dose inferred
Procedure: as §1

XAV 939 = compound: Oc1nc(-c2ccc(C(F)(F)F)cc2)nc2c1CSCC2 [XAV 939]; conditions: top dose 5 µM; top dose inferred
Procedure: as §1

Cell Line | AUC (Bexarotene) | IC50 (Bexarotene) [µM] | AUC (NPK76-II-72-1) | IC50 (NPK76-II-72-1) [µM] | AUC (YK 4-279) | IC50 (YK 4-279) [µM] | AUC (BMS-345541) | IC50 (BMS-345541) [µM] | AUC (AZD7762) | IC50 (AZD7762) [µM] | AUC (GSK-650394) | IC50 (GSK-650394) [µM] | AUC (XAV 939) | IC50 (XAV 939) [µM]
NOMO-1 (acute myeloid leukaemia, suspension) | 0.923 | > 8 | 0.594 | 1.2 | 0.798 | 5.51 | 0.782 | 7.66 | 0.44 | 0.0838 | 0.941 | > 16 | 0.979 | > 5
OCI-AML2 (acute myeloid leukaemia, suspension) | 0.929 | 7.31 | 0.61 | 1.18 | 0.732 | 2.32 | 0.903 | 11.5 | 0.642 | 0.277 | 0.698 | 3.05 | 0.995 | > 5
OCI-LY-19 (B-cell lymphoma, suspension) | 0.948 | > 8 | 0.443 | 0.453 | 0.753 | 3.11 | 0.852 | 10.9 | 0.6 | 0.229 | 0.616 | 2.03 | 0.958 | > 5
OVCAR-8 (ovary, adherent) | 0.961 | > 8 | 0.711 | 2.34 | 0.744 | 2.85 | 0.915 | > 16 | 0.693 | 0.407 | 0.809 | 7.29 | 0.981 | > 5
RL (B-cell lymphoma, suspension) | 0.986 | > 8 | 0.921 | > 10.2 | 0.976 | > 10 | 0.695 | 3.35 | 0.774 | 0.718 | 0.99 | > 16 | 0.983 | > 5
RVH-421 (melanoma, adherent) | 0.884 | > 8 | 0.954 | > 10.2 | 0.669 | 2.21 | 0.804 | 11.8 | 0.81 | 1.57 | 0.98 | > 16 | 0.937 | > 5
SBC-5 (small cell lung carcinoma, adherent) | 0.947 | > 8 | 0.894 | 8.3 | 0.518 | 0.691 | 0.993 | > 16 | 0.746 | 0.534 | 0.858 | 9.42 | 0.98 | > 5
SCC-9 (head and neck, adherent) | 0.978 | > 8 | 0.833 | 9.31 | 0.794 | 6.13 | 0.817 | 12.2 | 0.878 | > 2 | 0.957 | > 16 | 0.938 | > 5
SK-HEP-1 (liver, adherent) | 0.932 | > 8 | 0.971 | > 10.2 | 0.658 | 1.67 | 0.894 | > 16 | 0.955 | > 2 | 0.717 | 3.92 | 0.931 | > 5
SK-MEL-30 (melanoma, adherent) | 0.941 | > 8 | 0.944 | > 10.2 | 0.699 | 2.34 | 0.842 | 12.1 | 0.639 | 0.31 | 0.776 | 6.75 | 0.984 | > 5
SK-MES-1 (lung squamous cell carcinoma, adherent) | 0.859 | 7.58 | 0.985 | > 10.2 | 0.862 | 9.78 | 0.886 | > 16 | 0.786 | 0.942 | 0.784 | 7.41 | 0.919 | > 5
SU-DHL-4 (B-cell lymphoma, suspension) | 0.986 | > 8 | 0.866 | 5.16 | 0.989 | > 10 | 0.807 | 5.64 | 0.707 | 0.395 | 0.995 | > 16 | 0.997 | > 5
SU-DHL-6 (B-cell lymphoma, suspension) | 0.938 | 7.87 | 0.676 | 1.72 | 0.868 | 5.44 | 0.627 | 2.04 | 0.247 | 0.0299 | 0.882 | 9.65 | 0.995 | > 5
SW13 (adrenal gland, adherent) | 0.955 | > 8 | 0.988 | > 10.2 | 0.687 | 2.11 | 0.969 | > 16 | 0.893 | > 2 | 0.963 | > 16 | 0.986 | > 5
SW1271 (small cell lung carcinoma, adherent) | 0.957 | > 8 | 0.782 | 4.99 | 0.757 | 3.93 | 0.912 | > 16 | 0.762 | 0.818 | 0.8 | 9.17 | 0.982 | > 5
SW1990 (pancreas, adherent) | 0.871 | > 8 | 0.984 | > 10.2 | 0.87 | > 10 | 0.931 | > 16 | 0.603 | 0.251 | 0.842 | 14.3 | 0.924 | > 5
Saos-2 (osteosarcoma, adherent) | 0.813 | 6.91 | 0.98 | > 10.2 | 0.783 | 6.25 | 0.95 | > 16 | 0.759 | 0.995 | 0.935 | > 16 | 0.948 | > 5
U251 (glioma, adherent) | 0.959 | > 8 | 0.785 | 4.18 | 0.59 | 1.09 | 0.885 | > 16 | 0.979 | > 2 | 0.869 | 13.6 | 0.956 | > 5
UACC-62 (melanoma, adherent) | 0.972 | > 8 | 0.988 | > 10.2 | 0.701 | 2.28 | 0.979 | > 16 | 0.804 | 0.989 | 0.988 | > 16 | 0.963 | > 5

Reference: the supplement of paper PMC4967469
